Results reported in the supplement of paper PMC10126150.
Values marked as one replicate rest on one cluster of the flow cell; about a third of the high ones do not repeat.

Test system: ATP
Assay: switch fluorescence ratio, 500 uM ATP over buffer (Cy3 cluster intensity, sum of 5 cycles each) (fold (ratio)); higher = stronger signal-on switching upon ATP binding; sequences stand for … in TCGTCGGCAGCGTCAGATGTGTATAAGAGACAGTTTTTTTTTTTTTTTTTTTTTTTTT…TC
Settings: aptamer strand: ATP DNA aptamer (quencher-CACCTGGGGGAGTATTGCGGAGGAAGG + anchor), 100 nM annealed; ATP concentration: 500 uM; one replicate
Outline: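 After annealing to 100 nM quencher-labelled ATP aptamer, Cy3-labelled switching-strand clusters on a modified Illumina MiSeq flow-cell were imaged in selection buffer. A second image followed after 15 min with 500 uM ATP at 22 °C, and five such buffer/ATP cycles were done, each separated by NaOH stripping and re-annealing. The fluorescence ratio, averaged per switch-domain sequence, is summed target-cycle over summed buffer-cycle Cy3 intensity per cluster, with clusters outside 100-1000 RFU excluded.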
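Note: ATP exposure 15 min at 22 °C before imaging.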

Sequence	switch fluorescence ratio
ACTTTATTTT	1.08
CAGCGCTTTC	1.22
TCTTCAGCGA	2.38
TTCATCATTT	1.02
CTAGGAACTT	0.999
TTTAAGATTC	1
ACACATACGT	1.54
TTTGACAATC	1.23
CCTGGATGGC	1.02
CGGCTATCT	1.03
CTGGATGCCG	0.91
ACCCAGTCAA	1.1
TGACGGTATG	0.983
TGATGGCAAG	1.01
GGATCAAAGA	0.872
TATGCATGGC	1.22
TGGCGTCTTT	1.11
CCGGTGAGTG	0.998
GTAAACCGTT	1.05
CCCGGGCCAG	1.06
ATGCGCACTA	1.13
TGCACGCGTA	1.01
GGAAATGGG	0.96

Sequence	switch fluorescence ratio
TGGTGGTAGC	1.03
TTGCTCCTGG	1.01
GTAGTAGTAT	0.991
ATTTTTCGCT	0.981
CCGTTCCGG	0.962
GTCGTTGTGG	0.994
TTGGGATCG	0.969
GTCATTTTAC	1.02
TTTGCCCTAG	1.02
CCACTGTCGC	1.12
ACCTCGCAAG	4.49
GATTTGCGAG	1.02
AGTTTGAGT	0.999
GTTGTAGAAA	1.03
TGCTGGTATT	0.987
TCAACCGTT	1.02
GTTACAGGAT	0.985
CTTCACATGA	1
GGAGAGTTAC	0.994
CTGTTGTCAG	1.03
TTCTTTCATC	0.998
GGAATATATC	1.04
GTGTGCGCCG	0.997

Sequence	switch fluorescence ratio
ATGAAGATGA	1.01
TCTTACATGG	1.08
GGGTGGATCA	1.03
TTAGTTGCTC	1.02
CTGCAATCCG	2.15
TCCCACTCGG	1.05
TTGTTGGAAC	1.27
CTTGTGATGT	0.949
CTAGCGGATA	1.04
ATCTGGTTTA	1.04
GATCCTCGT	0.96
TGACATTCTA	0.98
GGGAAGACGG	1
CTTGGCCTAC	1.33
GATGAGGCTT	0.967
GGCGACACTA	1.13
GAAATCTTAT	0.999
AAAGTTCTCG	0.994
CGAGAATGTC	0.986
CAATTTCGGC	0.949
GCTCAACCAC	1.07
CGCCGTCGCC	1.07
TGCTTTGTTA	1.03

Sequence	switch fluorescence ratio
TAGTTTGTGG	0.935
CAAGACATAT	0.987
CGCAGTTACG	2.19
CGATCATCT	1.02
TCGCCGTACC	1.05
CCGTTAGCGT	1.65
GGTCACGTT	0.996
CTAATCCTGT	1.03
CTTCTCTTAA	0.97
AGTGGCGTTA	0.997
GTTTATAGTG	0.949
AAACCAAAGT	0.997
ATGTATTGTA	0.992
AACCTTTTTG	1.06
GATTGCTGCT	1.01
CCGGCTTGGT	1.03
TGTGGATCAA	1.02
TCTACCTAAT	1.05
TTTGTTCTG	1.07
TGATTGTGTG	1.05
CGTAATCAGC	1.1
TCAAGAAAGG	1.05
ATCACATGC	1.06

Sequence	switch fluorescence ratio
CTCAGCACTG	1.38
ACAGATCTGC	0.955
CCTGTGGCTA	1.4
TGTGGATCGT	0.984
TCACGCCATT	1.17
TCTGCCAAAA	1.29
TTAAATCAGT	0.982
CAAGGCGAAG	1.02
TAGGTTATT	0.96
TCACTGCACT	1.58
ACCCTCTTAT	1.01
GCGCGAATGG	1.15
TATGTGTATC	0.959
AATCTTTCCG	1.02
AGGATCAGAA	1.01
CACGACTCAT	1.1
ATTTTTGCTC	1.04
TTTCAGCACG	1.04
TCTGTGTCCA	1.04
CCGGTCAGGT	1.11
ACGATTTGGG	0.969
GATGTACGGA	1.06
AGGCGAGGTT	0.989

Sequence	switch fluorescence ratio
TTGCGGAATG	0.98
CAAACTCCCG	1.24
GCAGCAAATA	1.14
TGGATCGGCT	0.983
GCCGGGCTCA	0.981
TAGGCCAAAG	0.963
ACATGAAAGG	1.03
AATAGGTATT	1.04
TAAAGGCCGA	1.05
CGCACGAAAA	1.19
TTTCACTGAG	1.02
ATAAATAGCA	1.04
ACTTTTGGGA	0.968
TTGTAACTTG	0.981
ATGAGTAGTC	1.02
CTCCTTTCTT	0.994
GCATCAAGGT	1.03
ATGGGTGAGA	1.06
GTAAATTGAG	1.02
TAGGCGTTAA	0.963
TTTGCTACGC	1
TTGATCATTA	0.983
GGGATCACCG	0.988

Sequence	switch fluorescence ratio
ATCGTTGTCA	0.994
TCGCTGGTGG	1.03
CTCCTTGAGC	1.09
CGAGTTTTGA	0.956
ACTACCCTC	1.2
TACTAAAAGT	1.15
TCTATAAACG	0.995
ATCATTATTT	1.02
GGCGATACAC	1.38
TGTTGACACC	1.03
GTTAGCGTCA	1.03
TGTCTTAAGT	0.977
GGAGTTAGCA	1.02
GTCTCTTAAA	1.02
GATGCTGTTG	0.997
AGGATGTGGC	1.02
AACGACACTT	1.65
ACCGAATGC	2.32
GCACTATCAT	0.972
